Whole data set: some 33,000 sequences, median “E-score (-0.5 to 0.5)” near -0.012, cut for the highest 2% near 0.27. This is one part of the list.
molecular target: T1, Vhr1 (UniProt P40522); test: PBM E-score (8-mer binding enrichment) (E-score (-0.5 to 0.5)); higher = stronger / more preferred TF binding; most listed sequences are background and not binding sites; conditions: protein concentration: 200 nM; construct: GST-full length
T1 sequence: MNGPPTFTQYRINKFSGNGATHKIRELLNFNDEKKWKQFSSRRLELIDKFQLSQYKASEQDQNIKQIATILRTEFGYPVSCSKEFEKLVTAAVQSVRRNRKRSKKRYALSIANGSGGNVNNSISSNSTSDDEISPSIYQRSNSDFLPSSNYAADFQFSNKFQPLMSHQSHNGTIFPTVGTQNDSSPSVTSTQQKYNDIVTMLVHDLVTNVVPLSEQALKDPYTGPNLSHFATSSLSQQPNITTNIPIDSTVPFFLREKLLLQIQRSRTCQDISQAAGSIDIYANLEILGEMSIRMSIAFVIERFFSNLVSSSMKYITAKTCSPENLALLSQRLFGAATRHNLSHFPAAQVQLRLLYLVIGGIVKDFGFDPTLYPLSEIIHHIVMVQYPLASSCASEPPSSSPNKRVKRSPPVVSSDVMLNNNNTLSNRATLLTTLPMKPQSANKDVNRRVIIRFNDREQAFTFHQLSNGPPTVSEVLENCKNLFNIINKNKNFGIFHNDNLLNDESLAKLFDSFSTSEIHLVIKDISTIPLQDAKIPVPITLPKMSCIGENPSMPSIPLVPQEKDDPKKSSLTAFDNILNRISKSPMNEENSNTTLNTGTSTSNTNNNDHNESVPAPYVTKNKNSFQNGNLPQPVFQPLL
Outline: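 Detection of bound protein used fluorescent anti-GST, with scans normalised by masliner. The proteins were GST-tagged yeast transcription factors applied at about 100-200 nM to universal all-10-mer Agilent arrays made double-stranded by primer extension. Each ungapped eight-base word, pooled with its reverse complement, was scored with an E-score from the Universal PBM Analysis Suite.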

Point of comparison: GGAGGCAA, “PBM E-score” value -0.158. Against it:
- CCCTTACG — lower, -0.269
- TGTGCAAA — lower, -0.243
- CATATCTA — higher, 0.253
- AGCGGGTA — higher, 0.0529
- GGCTCAAC — lower, -0.199
- TCCTCAGA — lower, -0.26
- CGCGCAAG — higher, 0.221
- CAACAACC — higher, -0.01
- CTAAGTTA — higher, -0.0897
- AAGATCAT — higher, 0.0182
- CCTCTGAC — higher, 0.128
- CGAGCCAC — higher, -0.00024
- CCGAATAA — higher, -0.0769
- CCACAAAG — higher, 0.0507
- ACCCACAT — higher, 0.271
- GTACGCTA — higher, -0.0119
- ACAGAAGA — higher, -0.112
- ACGGTGTG — higher, -0.0437
- ACATTTTG — higher, -0.0763
- CTGTCTTA — lower, -0.177
- AGACACGG — higher, 0.148
- CGACTAGC — higher, 0.111
- ATGCCCCA — higher, 0.00289
- CAAGGAGG — higher, -0.143
- AGAATCCG — higher, 0.0279
- AATCTTCT — higher, 0.122
- TCGGGAGA — higher, -0.107
- CTGTGACA — higher, 0.132
- ATAGACGC — higher, -0.0084
- CCGCTGCA — higher, 0.0124
- ATCAGGAA — higher, 0.0718
- CTGCGAAG — lower, -0.193
- AACAGAGC — higher, 0.0551
- AACATCTG — lower, -0.249
- AGCCGAGA — higher, 0.0426
- GGCACCCC — higher, -0.0744
- GCTATAGC — lower, -0.43
- AAGCTAGG — higher, -0.037
- CCCCAGTC — higher, -0.0712
- CAGCAATA — higher, -0.0124
- AGGGCTTC — higher, -0.123
- ATCAAGAT — higher, -0.029
- GGCCGATA — lower, -0.246
- ACCTATCG — higher, 0.0733
- TTCACGAA — higher, -0.128
- ATGGCTTA — higher, 0.0442
- TACTTTAA — higher, -0.104
- ACAAGGGG — lower, -0.24
- CAGGCCCC — lower, -0.288
- CCAATATA — higher, -0.0864
- CATTCCGG — higher, -0.0365
- GCCATTAC — higher, 0.0967
- GATTTAAA — lower, -0.192
- CGTCTTGC — higher, -0.108
- GCTTGTTA — higher, -0.149
- GCCCTTTA — lower, -0.296
- AATAAGCT — higher, -0.126
- ACCACCAT — higher, 0.246
- CGGAACCA — higher, 0.343
- CGGCCCAA — higher, 0.024
- ATTGATGA — higher, 0.0368
- GACTAGCC — higher, -0.074
- ACCGCGAG — higher, 0.166
- TTAGTAAA — higher, -0.0123
- AGGGGATG — higher, -0.0735
- AAGTAGGC — higher, -0.0906
- AGATGCCG — higher, 0.0534
- ACGATGGA — higher, 0.119
- AGCATAGG — higher, -0.027
- CGGATATC — higher, 0.109
- ATAGTCGA — higher, 0.129
- ACACTAGA — higher, -0.0837
- CCCATGCA — higher, 0.0934
- TCTATAAA — higher, -0.0823
- CATCTTAC — lower, -0.17
- ACAACTAT — higher, 0.0546
- GCTATCCA — higher, 0.0732
- GCGGCAAC — higher, 0.0844
- ACATGCGA — higher, -0.0174
- CGTTAGAG — lower, -0.188
- ATGTGGTA — higher, 0.181
- GCGAGAGA — higher, -0.0678
- ACTGATCT — higher, 0.126
- GAGGACAC — higher, -0.0901
- ACCTCCAC — higher, 0.0905
- CCCTTTTA — lower, -0.188
- GCCATACC — higher, -0.0635
- CGGACTAG — higher, -0.0809
- TCGTCAGA — higher, -0.097
- AGGATAGG — higher, 0.0866
- GAGTTATA — higher, 0.08
- GGCGAGGA — higher, -0.0974
- CCCTTGCC — higher, 0.0782
- GATTTTGC — lower, -0.195
- GCGACACC — higher, -0.0564
- ACCCCTTC — higher, -0.0736
- CATCGCCG — higher, 0.0559
- CCACCGGC — higher, 0.001
- CGTCTTTA — higher, -0.0165
- CAGCACTC — higher, 0.128
- ATCGGGTC — higher, 0.0603
- ATTCTTAA — lower, -0.232
- CCGGGAAC — higher, 0.00388
- ATTAGCAC — higher, -0.03
- GGACTGCC — higher, -0.108
- GGACTATA — higher, 0.0737
- AGGTACCG — higher, -0.0235
- CGAATTGC — lower, -0.215
- TCGCGGAA — higher, -0.143
- GAATCTGC — higher, 0.0309
- CTACCCCC — higher, -0.128
- GAGCCGCA — higher, 0.0451
- CCGACCGA — higher, -0.0804
- CCGACTCC — higher, 0.45
- GGTAATCA — higher, 0.288
- CTTGCGTC — higher, -0.0324
- TAAAAGGA — lower, -0.167
- GACGTGGA — higher, -0.0505
- AAGTAGCC — lower, -0.186
- AGAGAGAC — higher, -0.0959
- GCGAATTA — higher, 0.103
- GAGCTTGC — lower, -0.191
- ACAATTGG — higher, 0.0402
- AACATTTC — lower, -0.213
- ACAGCGCA — higher, 0.118
- ATCCGGCG — higher, 0.00355
- ATACGGAT — higher, 0.0703
- AAATCCAT — higher, 0.131
- AGCTACAG — higher, -0.0261
- ATGTGAAT — higher, 0.101
- AGTTTACA — higher, 0.00012
- AAAGAAGC — lower, -0.271
- CCTCCTTC — higher, -0.09
- CCAAGCGC — higher, 0.0989
- GGCTCTAC — higher, -0.0583
- TAAGACAA — higher, -0.136
- CATAATTA — higher, 0.16
- CTCCGAGC — higher, 0.179
- AAGATGTA — higher, 0.0228
- ACGGGTTC — higher, 0.0689
- ACCCTAAT — higher, -0.0655
- GACGGTGA — higher, 0.1
- CGTAGAGC — lower, -0.17
- CCATTCGA — lower, -0.172
- GCAACCAA — higher, 0.163
- CTTCCCAC — higher, -0.0689
- GGAACACC — higher, -0.0425
- AGAACTAA — higher, -0.0237
- ATCGACGG — higher, 0.0804
- GACCCTCC — higher, 0.123
- TCAACGCA — higher, 0.0501
- ATGATTTA — higher, 0.295
- ACACCGAC — higher, 0.109
- GGCAAATA — lower, -0.217
- CATCGGGA — higher, 0.167
- CAGGAGGG — higher, 0.00314
- GTCCCATA — lower, -0.161
- CGGACACC — higher, -0.00979
- AGCGGAGC — higher, -0.102
- GGGCGTTA — higher, -0.0562
- GTCCGACA — higher, 0.0103
- TAGTCTGA — higher, 0.218
- CGGATCAA — higher, -0.0846
- CCGCCGCA — higher, -0.04
- CTCTCATC — higher, -0.131
- CCCGGATA — higher, 0.136
- CGTCCACA — higher, -0.108
- GTATGCTA — higher, -0.044
- CCGCTAGG — lower, -0.2
- CACCACAA — higher, 0.0415
- CGGGCACG — higher, -0.0348
- AACCTTCT — lower, -0.317
- GTAATATA — higher, 0.0926
- ACGTCGCA — higher, -0.128
- ACTGGGCA — lower, -0.174
- CCATCAGG — higher, 0.113
- ATATAAGG — higher, -0.0132
- TATCACGA — higher, 0.0244
- GTAAGAAC — higher, -0.0813
- CTCGTAAC — higher, -0.0519
- AATTTCAA — lower, -0.288
- ACAAACCT — higher, -0.0456
- AGAGATAA — lower, -0.203
- CACACACG — higher, 0.272
- ATCGGCTG — higher, 0.0723
- CGTGGACC — lower, -0.19
- AGTTTTTC — higher, -0.152
- AACGCAGA — higher, -0.0416
- CGTTGCCA — lower, -0.221
- GGGCTGAA — higher, -0.0178
- ATCGATTC — higher, 0.156
- GCGCAATA — higher, 0.0102
- ATCAGGGG — higher, 0.0603
- AGAAGGGC — lower, -0.16
- GGCACATA — higher, 0.13
- GTGTCCCA — higher, 0.169
- CAGCGAAC — higher, -0.0303
- AGGTCGAG — higher, -0.0182
- AGTTTGGA — higher, 0.121
- AAAATATA — higher, 0.0195
- ATGCAAGG — higher, -0.146
- CCCTTTGA — higher, -0.0818
- GCCGCACA — higher, -0.00763
- ATATAACC — higher, 0.175
- AAACCTAG — higher, -0.0174
- GCAGCCCA — higher, 0.0376
- TAGGGACA — higher, -0.0417
- GGAAGAAA — higher, -0.136
- AAGAAGGG — higher, -0.0454
- GCCAGGAC — higher, -0.00785
- CTGTGGCC — higher, -0.111
- AGCTGTTC — higher, -0.136
- AAACAGGT — higher, -0.108
- CAATTAAG — higher, -0.124
- GACCGTGA — higher, 0.091
- AAAGCAAA — lower, -0.208
- CACCCATC — higher, 0.212
- CTATAAAG — higher, -0.133

Reference: the supplement of paper PMC3334620
